Test results published in PubChem BioAssay AID588795 (National Center for Advancing Translational Sciences (NCATS), 2011).
Values joined by “and” are separate entries in the source; they are usually repeats but may differ in a detail not shown here. Identical values can stand only once. In all, about 390,000 compounds went through this assay and about 1,400 (0.36%) were called active. The shares of active, inactive and inconclusive entries below differ from those in the screen. Calls come from the whole dose curve; as a rule, active = well fitted inhibition curve with a large enough effect; inconclusive = small, poorly fitted or top-dose-only effect; inactive = no such curve, though single readings can be large or run the other way. Potencies of inconclusive entries are doubtful fits and often do not repeat.

Molecular target: Flap endonuclease 1 (Homo sapiens) (UniProt P39748)
Chain of UniProt P39748 (P39748 whole entry, looked up): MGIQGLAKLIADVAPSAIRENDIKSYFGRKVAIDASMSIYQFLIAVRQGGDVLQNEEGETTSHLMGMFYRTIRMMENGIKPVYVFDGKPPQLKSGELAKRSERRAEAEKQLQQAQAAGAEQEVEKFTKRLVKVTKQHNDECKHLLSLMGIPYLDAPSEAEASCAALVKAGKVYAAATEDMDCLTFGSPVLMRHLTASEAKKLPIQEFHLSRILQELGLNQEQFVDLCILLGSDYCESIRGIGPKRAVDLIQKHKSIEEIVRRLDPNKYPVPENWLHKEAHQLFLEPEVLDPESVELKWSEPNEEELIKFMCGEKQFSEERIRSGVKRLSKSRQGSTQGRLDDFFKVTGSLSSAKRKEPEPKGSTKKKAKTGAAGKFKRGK
Test: qHTS Assay for the Inhibitors of Human Flap endonuclease 1 (FEN1). Note: nearly all actives have a fitted effect of over 65% in size.
Conditions: Recombinant FEN1 flap cleavage, fluorescence, 15 min; series mostly up to 114 µM
How it was run: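 Nuclease activity of 10 nM FEN1 was measured after 15 min of room-temperature exposure to titrated compounds, by adding 50 nM flap substrate and reading plates at 0 and 15 min.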
Potency is the fitted concentration of half-maximal effect; tags give direction and shape of the fitted curve.

Row | Structure (SMILES) | Potency
1 | COc1cc(NC(=O)c2cc3ccc4cccnc4c3[nH]2)cc(OC)c1OC | inconclusive: 39.8 µM [inhibitor, partial curve, poor fit]
2 | CC(=O)C1=C(c2ccc(Cl)c(Cl)c2)N(C(C)=O)n2cnnc2S1 | inactive
3 | CN(C)c1ccc(C=c2c3ccccc3n3c2c2ccccc2[n+]3C)cc1 | active: 31.6 µM
4 | Cc1ccc(C(=O)N2CCN(c3ccccc3Cl)CC2)cc1[N+](=O)[O-] | inconclusive: 89.1 µM [inhibitor, partial curve, poor fit]
5 | CCOCCCn1c(=NC(=O)c2cccnc2)c(C(=O)OCC)cc2c(=O)n3ccccc3nc21 | inactive
6 | COc1cc(-c2noc(C)c2C#Cc2ccc(N)cc2)cc(OC)c1OC | inconclusive: 25.1 µM [inhibitor, partial curve, poor fit] and inconclusive: 50.1 µM [inhibitor, partial curve, poor fit]
7 | CCCCC(CC)COC1(c2ccccc2)OC(=O)c2ccccc21 (configuration not stated) | inconclusive: 79.4 µM [inhibitor, partial curve, poor fit]
8 | Oc1ccccc1/C=N/Nc1nn[nH]n1 | inactive
9 | CN(Cc1ccccc1)C(=O)CC(c1ccccc1)c1cc(Cl)ccc1O (configuration not stated) | inconclusive: 79.4 µM [inhibitor, partial curve, poor fit]
10 | CCC1=Nc2cc(C(=O)NCCCOC(C)C)ccc2Sc2ccccc21 | inactive
11 | CCSc1oc(-c2ccco2)nc1S(=O)(=O)c1ccc(F)cc1 | inconclusive: 79.4 µM [inhibitor, partial curve, poor fit]
12 | Cc1nc2ccc(S(=O)(=O)Nc3ccc(-c4nc5cccnc5s4)cc3)cc2s1 | inconclusive: 31.6 µM [inhibitor, partial curve, poor fit]
13 | Cc1cc(C)n(-c2nc(C)c(C)c(=O)n2CC(=O)Nc2ccc(Cl)c(Cl)c2)n1 | inactive
14 | O=C(NC(Cc1ccccc1)C(=O)O)/C(=C\c1cccc([N+](=O)[O-])c1)NC(=O)c1ccco1 (configuration not stated) | inactive
15 | C1CCC(N=C(NC23CC4CC(CC(C4)C2)C3)N2CCOCC2)CC1 | inconclusive: 23.8 µM [inhibitor, partial curve, poor fit]
16 | COc1ccc2cc1Oc1ccc(cc1)C[C@H]1c3c(cc(OC)c4c3Oc3c(ccc5c3[C@H](C2)N(C)CC5)O4)CCN1C | inconclusive: 10 µM [inhibitor, partial curve, poor fit]
17 | Cc1nc2c(-c3ccc(F)cc3)c(C)nn2c(C)c1CCC(=O)N1CCN(c2ccc(F)cc2)CC1 | inconclusive: 39.8 µM [inhibitor, partial curve, poor fit]
